Source: the supplement of paper PMC4166925
± gives the standard deviation of the averaged measurements. Whole data set: some 33,000 sequences, median “E-score (dimensionless, -0.5 to 0.5)” near -0.049, cut for the highest 2% near 0.37. The list shows a part of the results.

The sequences below were run on T1, PmTbr T-box DNA-binding domain (GST fusion) (assay: PBM E-score of 8-mer (E-score (dimensionless, -0.5 to 0.5)); Tbr is Tbrain of the sea star Patiria miniata (Pm) or the sea urchin Strongylocentrotus purpuratus (Sp); higher = stronger binding preference; most listed sequences are background and not binding sites). Conditions: the construct has about 5 more residues each side.
T1 sequence: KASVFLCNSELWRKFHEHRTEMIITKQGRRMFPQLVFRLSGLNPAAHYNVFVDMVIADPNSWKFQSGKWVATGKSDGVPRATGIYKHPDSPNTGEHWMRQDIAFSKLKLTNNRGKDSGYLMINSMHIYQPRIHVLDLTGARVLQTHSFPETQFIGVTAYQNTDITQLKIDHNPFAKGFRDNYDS
Procedure, shortened: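 GST-fused Tbr T-box DNA-binding domains (the whole T-box plus about five flanking residues) were expressed in BL21 E. coli at 20 °C and purified by glutathione affinity chromatography. Universal Agilent oligonucleotide arrays were made double-stranded by primer extension, incubated with 200 nM protein in PBS (pH 7.5), then scanned and quantified. Every ungapped 8-mer was scored from probe intensities. The Universal PBM Analysis Suite gave each word an enrichment E-score, averaged over duplicate arrays.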

Sequence	PBM E-score of 8-mer
AGGGAGCA	0.0515 ± 0.038
ACACAACT	0.193 ± 0.037
AGTGCGCG	0.0675 ± 0.052
GTGATCAA	-0.00274 ± 0.14
ATGTTACC	-0.095 ± 0.036
CTAATGAG	-0.182 ± 0.13
CCGCACGA	-0.159 ± 0.021
ATAGCACG	0.358 ± 0.017
AAGGTATT	0.0819 ± 0.0091
CCCATGAC	-0.198 ± 0.031
CAATAGTC	-0.0141 ± 0.069
AAAACGTT	-0.2 ± 0.15
ACCGGATA	-0.173 ± 0.037
CCTCAAGC	-0.144 ± 0.04
GTGGACTA	-0.304 ± 0.075
GGCAGGCA	-0.2094 ± 0.00052
CAAATAAA	-0.148 ± 0.064
GTGCGGGA	0.0797 ± 0.032
ACGCGCCT	0.166 ± 0.015
AAGCGGTG	-0.194 ± 0.025
AACGGCTG	-0.0677 ± 0.049
AAATTGGC	0.114 ± 0.084
CCATACAC	-0.0531 ± 0.052
AAGCCACG	-0.088 ± 0.034
AGCGCGAG	0.319 ± 0.011

Sequence	PBM E-score of 8-mer
TAATCCGA	-0.115 ± 0.026
CTTAAAAG	-0.0997 ± 0.013
CGAGATAG	-0.0663 ± 0.037
ATTCGCAG	0.297 ± 0.024
ACAAGGAG	0.00398 ± 0.033
AAGTTAGA	-0.161 ± 0.01
ACAAGATG	-0.0867 ± 0.013
ACTATCTG	0.166 ± 0.011
AAGTGCAT	-0.0955 ± 0.069
CCCTCCAA	-0.0346 ± 0.0069
AGGCTCAT	-0.211 ± 0.075
ACCAGAAA	0.107 ± 0.028
TCGAAGAA	-0.287 ± 0.066
ACAGAAAT	-0.0955 ± 0.039
ACCTGTAA	0.139 ± 0.013
CCCAGTAA	-0.156 ± 0.067
GCGTTAAC	0.275 ± 0.056
CTTTATGC	-0.264 ± 0.027
ACATCGAG	-0.0166 ± 0.019
TTGTAAAA	-0.0584 ± 0.093
CGGGAGGC	0.131 ± 0.036
ATTGGATC	-0.119 ± 0.047
TGGTACAA	-0.0661 ± 0.01
ACTAATCC	-0.0993 ± 0.04
GCCTGCCC	-0.146 ± 0.055

Sequence	PBM E-score of 8-mer
TATTATGA	0.167 ± 0.06
CTGAGTTA	-0.167 ± 0.042
AACCGCGG	0.0351 ± 0.0077
AAGCGCCT	-0.133 ± 0.04
GAGGGCCC	-0.157 ± 0.12
CACTTTGA	0.3 ± 0.017
TAGGCATA	-0.104 ± 0.016
GCATTGGC	-0.126 ± 0.079
CGAATTTA	-0.0207 ± 0.021
GCAATGTA	-0.0933 ± 0.013
ACCCCTGC	0.00693 ± 0.082
AGCCAACA	0.0222 ± 0.082
AGAGCGAT	-0.0395 ± 0.054
ATCTCAGG	-0.0248 ± 0.056
AGGGTGGG	-0.0208 ± 0.038
ACGCGTGC	0.14 ± 0.034
ACCAAAGC	-0.0779 ± 0.099
ATGATTTG	-0.0586 ± 0.019
CATGTTAG	0.0379 ± 0.005
AGCCGGCA	0.0199 ± 0.059
GCACGTCA	0.299 ± 0.0076
CCTACAAC	0.148 ± 0.04
ATCACGTA	0.0652 ± 0.046
GCCACACC	0.394 ± 0.024
ATTTGTAG	-0.152 ± 0.021

Sequence	PBM E-score of 8-mer
TAGAGATA	-0.0296 ± 0.007
CCGACGTC	-0.158 ± 0.025
CTGGGCAC	-0.0642 ± 0.056
CATACTAA	-0.177 ± 0.061
CTATTCTC	-0.0482 ± 0.011
ACTGATAA	-0.125 ± 0.069
ACTCCTCT	0.071 ± 0.046
ATCTGTCC	-0.123 ± 0.029
CGGCTTAC	-0.117 ± 0.056
AAGGAAAT	-0.125 ± 0.081
CGCAGCAG	-0.127 ± 0.05
GTGCCGAA	0.256 ± 0.0053
AGGCAGGA	-0.184 ± 0.052
AGTTGTAC	-0.0597 ± 0.048
CGAGAGTC	-0.127 ± 0.043
AAGAACAG	-0.11 ± 0.011
CCATGGAG	-0.242 ± 0.027
CAAAGAAG	-0.127 ± 0.015
GACAGCAC	0.174 ± 0.005
AGCGGGTC	0.102 ± 0.07
GACAGAAA	-0.114 ± 0.055
AGGAGGGG	-0.0498 ± 0.052
GCACATTA	0.15 ± 0.015
AACTCGCA	0.316 ± 0.019
AAATTGAA	-0.207 ± 0.083

Sequence	PBM E-score of 8-mer
CTCACGAA	0.0478 ± 0.011
AAGAGAAC	-0.215 ± 0.027
CCTAGCCA	-0.105 ± 0.011
ATATGGGA	-0.236 ± 0.056
GATACTCC	-0.0399 ± 0.0054
AGCGAATC	-0.0899 ± 0.015
CAGTATAA	-0.0751 ± 0.07
AAACAGTC	-0.0618 ± 0.029
GCCTAGAC	-0.0277 ± 0.028
CGAGTCGA	0.00789 ± 0.045
TCGTTTCA	0.145 ± 0.031
ACATTGCC	0.126 ± 0.074
CGGGAGAG	-0.0145 ± 0.014
GATACCAA	-0.0695 ± 0.017
CTTGACGA	0.144 ± 0.0085
CATCGCGC	0.262 ± 0.0094
CTCGCAAC	0.324 ± 0.029
GCCTACGC	-0.0536 ± 0.045
AATAATAG	-0.0858 ± 0.098
CAAAAAAG	-0.158 ± 0.05
ACGTGGTA	0.0282 ± 0.0051
AAAGTATG	-0.163 ± 0.0052
CCCACGCA	-0.182 ± 0.089
ATTAATCC	-0.376 ± 0.0037
TCTGCTAA	0.148 ± 0.032

Sequence	PBM E-score of 8-mer
AGTTAATG	-0.103 ± 0.0068
ACGTGGTC	0.0292 ± 0.11
CTTGCTAC	0.0402 ± 0.038
ACTGGATA	-0.166 ± 0.015
AACCCCGT	-0.0397 ± 0.027
ACACTTAA	0.362 ± 0.031
ATGTAGGG	-0.366 ± 0.0054
AGGAACCC	-0.314 ± 0.027
ACCGCACT	-0.0142 ± 0.025
CCTATTTA	-0.0627 ± 0.026
CAACAGGA	-0.0583 ± 0.027
AATAACAG	0.0771 ± 0.072
AGTCGAAG	-0.0996 ± 0.05
ATACCCGC	-0.0707 ± 0.0099
CTACGGGA	-0.278 ± 0.021
ACCTCGCT	0.0927 ± 0.0016
CTTAAGGA	-0.206 ± 0.005
ATGCTCTC	-0.222 ± 0.022
ACGTGGCG	0.153 ± 0.0088
GTTCGAAC	-0.0923 ± 0.014
AGGTGCGG	0.434 ± 0.011
TATATAGA	-0.00256 ± 0.03
GGTGCACA	0.14 ± 0.044
ATCGAAAG	-0.205 ± 0.047
AAGACAGA	-0.173 ± 0.049

Sequence	PBM E-score of 8-mer
AAACATTT	-0.301 ± 0.027
CGTTAGAC	0.0732 ± 0.031
ATTCGCAC	0.4784 ± 0.002
AGGCCGCG	-0.0807 ± 0.04
CAAACTCG	0.00222 ± 0.032
AGTATGAG	-0.19 ± 0.022
ACCGGAAT	-0.127 ± 0.045
GAACGGAA	-0.109 ± 0.086
CAAATGAG	-0.127 ± 0.1
GATAGAGA	-0.0097 ± 0.0053
CGGATGCC	-0.239 ± 0.09
AATATTGG	-0.00679 ± 0.0075
AGCCCGTC	-0.0561 ± 0.0066
AAAACGAA	-0.098 ± 0.084
AATGGTTG	0.0395 ± 0.019
ACAGACGT	-0.00267 ± 0.048
GCCACCCC	0.208 ± 0.0084
CACATATA	0.26 ± 0.046
CATTGATA	-0.0676 ± 0.064
TGAAGTCA	-0.187 ± 0.036
GCCTATTA	-0.0261 ± 0.018
CACGACAG	0.143 ± 0.058
